Test results as given in PubChem BioAssay AID757 (NMMLSC, 2007).
The whole screen tested about 190,000 compounds, of which about 520 (0.27%) were called active. Inconclusive results, whose numbers are uncertain, are shown with a selection of clear calls.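 Rule for the calls: active = GTP binding activity at least 20 points away from the 100% control level, either lower or higher; inconclusive = compound flagged as likely green fluorescent, judged across all proteins; inactive = the rest.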

Each compound was assayed against Ras-related C3 botulinum toxin substrate 1 (Homo sapiens) (UniProt P63000) (assay: wildtype Rac1 GTP binding modulators, primary screen, biochemical, GST-Rac1 beads, flow cytometry, multiplex (AID 757)). Conditions: fluorescent GTP binding, at 10 µM, actives lie on both sides, 0 = cold GTP competed, 100 = untreated.

Row | SMILES | GTP binding activity (% of control)
1 | CC(=O)NC1C(Oc2ccc3c(C)cc(=O)oc3c2)OC(COC(C)=O)C(OC(C)=O)C1OC(C)=O (stereo not given) | inactive: 100%
2 | O=C(Nc1cccc(Cl)c1)Nc1ccnc(-c2cccnc2)n1 | active: 77%
3 | COc1ccc(C(=O)NC(=S)NNC(=O)CNC(=O)C2CCCCC2)cc1 | inconclusive: 89%
4 | Nc1c(C(=O)NC2CC2)sc2nc3c(c(-c4ccco4)c12)CC/C3=C/c1ccco1 | inconclusive: 86%
5 | Cn1cc([C@@H]2C[C@H]3CN(Cc4cccc(Cl)c4)C(=O)[C@]34CCCN24)c2ccccc21 | inconclusive: 123%
6 | O=C1C=C(N(CCO)Cc2ccccc2)c2ccccc2C1=O | inconclusive: 107%
7 | NC(=O)COC(=O)CSc1ccc2ccccc2c1 | inactive: 94%
8 | COc1ccc(N2CCN(C(=O)c3ccc4c(=O)n(CC5CCCO5)c(=O)[nH]c4c3)CC2)cc1 (stereo not given) | inconclusive: 101%
9 | Cc1cc(NC(=O)Cn2nc([N+](=O)[O-])c(Br)c2C)no1 | inactive: 102%
10 | CC(=O)Nc1ccc(/C=C/c2ccc3c([N+](=O)[O-])cccc3n2)cc1 | inactive: 96%
11 | Cc1cc(C)n2nc(SCCOc3ccccc3F)nc2n1 | active: 74%
12 | CCN(CC)CC(=O)Nc1ccc2c(c1)Nc1ccccc1CC2 | inconclusive: 108%
13 | CC(=O)Cn1nnc2sc(-c3ccccc3)cc2c1=O | inactive: 101%
14 | Cc1cc(C)nc(SCC(=O)c2c(N)n(C)c(=O)n(C)c2=O)n1 | inconclusive: 98%
15 | CC(=O)Nc1ccc(/C=N/NC(=O)CCN2CCN(c3ccccc3)CC2)cc1 | active: 74%
16 | COc1cc2[nH]c(=S)nc(NCc3ccccn3)c2cc1OC | active: 76%
17 | O=C(O)c1cccc(-n2cccc2/C=C2/NC(=O)N(c3ccc(Cl)cc3)C2=O)c1 | active: 67%
18 | CCN(C(=O)COC(=O)/C=C/c1c(C)nn(Cc2ccc(C)cc2)c1C)C1CCS(=O)(=O)C1 (stereo not given) | inactive: 100%
19 | OCC(CO)(CO)NCc1ccc(-c2ccccc2)cc1 | inconclusive: 194%
20 | O=C(/C=C/c1ccc(Cl)cc1Cl)NCCSc1ccccc1 | inconclusive: 94%
21 | COC(=O)c1cc(-c2ccccc2)sc1NC(=O)CN1C(=O)c2ccccc2C1=O | inconclusive: 110%
22 | NC(=O)c1sc(=S)n2c1[nH]c(=O)c1sccc12 | inconclusive: 90%
23 | O=C(CCCCCNc1nc(=S)[nH]c2ccccc12)N1CCN(c2ccccn2)CC1 | inactive: 91%
24 | COc1ccc(/C=N/NC(=O)c2ccc(COc3cccc4cccnc34)cc2)cc1OC | inconclusive: 85%
25 | COC(=O)c1nnn(-c2ccsc2C(=O)OC)c1C(=O)OC | inactive: 102%
